ChEMBL document CHEMBL4888484, “Replenishing the malaria drug discovery pipeline: Screening and hit evaluation of the MMV Hit Generation Library 1 (HGL1) against asexual blood stage Plasmodium falciparum ,using a nano luciferase reporter read-out” (2022)
About 540 (0.36%) of roughly 150,000 compounds showed an effect of 50% or more. The list shows a part of the results.

tested on: Plasmodium falciparum; assay: Primary screen in NF54 nanoGlo assay, in single point, at 2uM, 72h; a lower Z score goes with more inhibition; format: functional, Erythrocyte; settings: timepoint 72 hour

Row | SMILES | % Inhibition [%] | Z score
1 | CO[C@@H](C)c1nc(CN=C(N)N2CCCCCC2)cs1 | -5 | 0.5
2 | CCCCNC(=O)CN(C)C(=O)c1ncoc1C1CC1 | -8 | 1.44
3 | O=C(c1ccccc1C(F)(F)F)N1Cc2cccnc2C1 | -7 | 0.83
4 | Cc1ccc([C@@H]2CC(c3cn(-c4ccccc4)nc3-c3ccccc3)=NN2S(C)(=O)=O)cc1 | -2 | 0.25
5 | O=c1c2c(nc(N3CCOCC3)n1C1CCCCC1)CCC2 | -28 | 3.27
6 | CCOc1ccc(CN2CCC(C3CCCO3)C2C(=O)O)cc1 (stereo not drawn) | -8 | 1.08
7 | COc1cccc(OC)c1-c1ccccc1-c1nnc(C)o1 | -1 | 0.23
8 | COc1ncc(CN2CCC[C@H](CNC(=O)NC(C)(C)C)C2)cn1 | -3 | 0.57
9 | Cc1cnccc1CCNCc1nc2cc(F)ccc2o1 | -13 | 1.8
10 | CC(C)n1ccc2c(NC(=O)C[C@@H]3NC(=O)c4ccccc4N=C3O)cccc21 | -3 | 0.52
11 | O=C(Nc1ccc2c(c1)OCCO2)c1ccc(N2C(=O)CCS2(=O)=O)cc1Cl | -3 | 0.42
12 | Cc1nscc1C(=O)N(C)c1cccnc1N1CCCC1 | 14 | -1.28
13 | COCCN(CCN(C)C)C(=O)c1ccc(Cl)c(Cl)c1 | -5 | 0.71
14 | O=C(C1CCCCCC1)N1CCN(c2ncccn2)[C@H]2CS(=O)(=O)C[C@H]21 | 7 | -1.03
15 | Cc1cc(C)c2c3ccccc3n(CCNC(=O)CC(C)(C)CC(=O)Nc3ccc4c(c3)OCO4)c2n1 | 9 | -1.15
16 | Cc1ccc(C)c([C@H](C)NCc2ccn(C)c(=O)c2)c1 | -5 | 0.7
17 | CN(Cc1nccn1C)C(=O)c1c[nH]nc1-c1ccccc1 | -7 | 0.98
18 | FC(F)(F)c1cc(C2CC2)nc2cc(-c3nnc(-c4ccncc4)o3)nn12 | -46 | 5.36
19 | CC(C)N1C(=O)[C@H](Cc2ccccc2)NC12CCN(C(=O)c1ccccc1Cl)CC2 | -8 | 0.78
20 | COC(C)[C@H](C)NC(=O)NCCc1ccc(C)nc1 (stereo partly drawn) | -8 | 0.9
21 | C[C@](NCc1nnc(-c2ccco2)o1)(C(N)=O)c1cccc(Cl)c1 | -9 | 1.18

Row | SMILES | % Inhibition [%] | Z score
22 | Cc1ccc2c(c1)O[C@@H](C)CN2S(=O)(=O)c1cccnc1 | -1 | 0.08
23 | Cc1nn(C)c(-n2cccn2)c1C(=O)N1CCN(c2ncccn2)CC1 | -13 | 1.57
24 | O=C(Nc1cccc(Cl)c1)Nc1c(-c2ccc(C(F)(F)F)cc2)n[nH]c1C1CC1 | -12 | 1.21
25 | Cc1n[nH]c(C)c1CCC(=O)N1C[C@@H]2CC[C@H]1CN(S(=O)(=O)N(C)C)C2 | -2 | 0.28
26 | C[C@@H](c1ccncc1)N1CCC(NC(=O)NC2(CCO)CCC2)CC1 | -7 | 1.37
27 | C[C@H]1C[C@@H](C(F)(F)F)n2ncc(C(=O)N(C)[C@H]3CCC[C@@H]3O)c2N1 | 1 | -0.1
28 | Cc1ccnn1CC(=O)N1C[C@H]2CC[C@@H](C1)N(CC1CCC1)C2 | -19 | 1.87
29 | CCN(CC)c1ccc(C(=O)N2CCC(n3cc(-c4nc(C(C)C)no4)nn3)CC2)cc1 | -9 | 1.03
30 | C[C@@H](C(=O)Nc1ccccc1-c1ccccc1)N1CCCC1 | 14 | -1.74
31 | CC(C)[C@H]1COC(=O)N1CC(=O)N(Cc1ccccc1)C1CCCC1 | 14 | -1.98
32 | Cc1c(C(=O)N2CCC(C)CC2)c(S(=O)(=O)N2CCc3ccccc3C2)c(C)n1C | 6 | -1.01
33 | CN(C)c1ccc(C(=O)NCc2ccc3c(c2)CCN3C(=O)c2ccccc2)cc1 | -14 | 2.57
34 | N#Cc1ccncc1N1CCC[C@H](F)C1 | -1 | 0.18
35 | Cc1cccc(OCC(=O)N2C[C@H](C3CC3)[C@@H](N)C2)c1 | 5 | -0.94
36 | CNS(=O)(=O)NC1CCN([C@@H](C)C(=O)N(C)Cc2cccc(F)c2)CC1 | -6 | 0.66
37 | CCc1nc(NC(=O)CN2CCO[C@H](c3cccs3)C2)sc1C | -10 | 0.91
38 | Cc1cccc(NC(=O)CC(=O)NCC2(Cn3nc(C)cc3C)CC2)c1 | 8 | -1.62
39 | COC[C@H](C)NC(=O)NCc1cccs1 | -6 | 0.77
40 | CCCn1cc(CN2CCN(CC3CCCCC3)[C@@H](CCO)C2)c(C)n1 | -14 | 2.02
41 | CCOC(=O)C1CCN(C(=O)CN2C(=O)COc3ccc(C(=O)N(C)C)cc32)CC1 | -8 | 1.04
42 | O=C(c1ccccn1)N1CCCC[C@H]1c1nncn1CC1CC1 | -5 | 0.85

Row | SMILES | % Inhibition [%] | Z score
43 | Cc1nc(C)c(C(=O)O[C@@H](C)CCn2cccn2)s1 | -1 | 0.1
44 | CC(C)CN(Cc1ccsc1)S(=O)(=O)N1CCCC1 | 6 | -1.09
45 | O=C(NC[C@H]1CCCN1CC(F)(F)F)c1cc[nH]c(=O)c1 | -12 | 1.83
46 | C[C@H]1COCCN1C(=O)C1=CCCCO1 | -14 | 1.49
47 | Cc1c(C(=O)N(CC(=O)OC(C)(C)C)C(C)C)nnn1-c1cccc2ncccc12 | 15 | -1.76
48 | CN(CCC(=O)Nc1cccc(Br)c1)S(C)(=O)=O | -14 | 1.46
49 | CCO[C@H]1COC[C@@H]1n1cc(-c2ccc3c(c2)OCCO3)nn1 | -12 | 2.23
50 | Cc1nc2c3ccccc3nc(CCN3C(=O)c4ccccc4N4C(=O)CC[C@]34C)n2n1 | -13 | 1.84
51 | CN(CCc1nc2ccccc2c(=O)[nH]1)CCc1nccs1 | -8 | 0.82
52 | Cc1ccc(C[C@H](C)N(C)S(=O)(=O)N(C)C)cc1 | -3 | 0.4
53 | COc1ccc(CNC(=O)Cn2nc(C)cc2C(=O)N2CCOCC2)cc1 | 0 | -0.02
54 | Cc1cccnc1NC(=O)C(F)(F)F | -13 | 1.74
55 | COCC(=O)Nc1cc(C(=O)N(C)Cc2cnn(C)c2)c2c(c1)ncn2Cc1ccc(F)cc1 | -5 | 0.58
56 | CC(NC(=O)N1CCN(S(=O)(=O)c2ccc(Cl)cc2)CC1)C1CCCO1 (stereo not drawn) | -2 | 0.32
57 | O=C(CN1C(=O)COc2ccc(Cl)cc21)NCc1cccnc1 | -4 | 0.71
58 | O=C(NCCCc1ccccc1)N(Cc1ccco1)C1CCOCC1 | -6 | 0.99
59 | COc1ncccc1C(=O)N[C@H]1CCC(C)(C)c2ccccc21 | 6 | -1.13
60 | CCn1nc(C)cc1C(=O)Nc1cnccc1C(N)=O | 27 | -3.06
61 | CN(Cc1cc(-c2ccccn2)no1)C(=O)c1cccc([C@H]2CCCNC2)c1 | 0 | 0.09
62 | O=S(=O)(NC[C@@]1(COc2ccccc2)C[C@@H](O)[C@@H](O)C1)c1ccc(Cl)cc1 | -7 | 1.09
63 | COCc1c(C(=O)N2CCN(c3ccccn3)CC2)c(=O)cc(C)n1Cc1cccc2ccccc12 | -2 | 0.27

Row | SMILES | % Inhibition [%] | Z score
64 | O=C1c2ccccc2N[C@]2(C(=O)N(Cc3ccccc3F)c3ccccc32)N1c1ccccc1 | -14 | 1.52
65 | COc1cc(NS(=O)(=O)c2cnnn2C)cc(OC)c1 | 32 | -3.61
66 | Cn1ncnc1[C@@H]1COCCN1C(=O)c1ccccc1OC1CC1 | -9 | 1.53
67 | CC(C)(NC(=O)[C@@H]1Cc2ccccc2O1)c1cn(-c2ccccc2)nn1 | -4 | 0.39
68 | CC(=O)N1CCCN(C(=O)C[C@H](C)C2CCCCC2)CC1 | 3 | -0.49
69 | O=C(NCCc1ccns1)c1ccccc1C1CCC1 | 21 | -3.32
70 | Cc1c(C(=O)N(C)Cc2ccoc2)cnn1[C@H]1CCS(=O)(=O)C1 | -7 | 0.85
71 | CCCCn1ncc(NCc2nc(C)cs2)c1C | -9 | 0.92
72 | COc1ccc(NC(C)(C)C(=O)NC[C@H]2CCN(c3ccccc3C)C2)cc1 | 3 | -0.64
73 | CCn1cc(C(=O)Nc2ccnc(C)c2Cl)cn1 | 5 | -0.72
74 | O=C(c1ccc2ccccc2n1)N1CCN(Cc2nc(-c3ccsc3)no2)CC1 | -3 | 0.43
75 | CC(NC(=O)N1CC(C)C(N2CCOCC2)C1)c1c(F)cncc1F (stereo not drawn) | -17 | 1.9
76 | CCOc1ccc(N2CC(C)N(CCOC)C(C)C2)nn1 (stereo not drawn) | -12 | 1.84
77 | CC(C)CC1C(=O)NCCCN1C(=O)CC1CCCS(=O)(=O)C1 (stereo not drawn) | -5 | 0.78
78 | c1ccc(-c2nc[nH]c2-c2ccc([C@@H]3CCCCO3)o2)cc1 | -9 | 1.52
79 | CCn1cc(N[C@@H](C)C2=Cc3ccccc3OC2)cn1 | -5 | 0.79
80 | CN(C[C@H](O)Cn1cccn1)C1Cc2ccccc2C1 | -5 | 0.74
81 | OCCNc1nc2ccccc2n1Cc1cc2c(cc1Br)OCCO2 | -3 | 0.28
82 | O=C(Nc1ccc2oc(-c3cccnc3)nc2c1)c1ccc2ccccc2c1 | 2 | -0.21
83 | CCC1Cc2ccccc2CN1C(=O)C1CC1C(=O)O (stereo not drawn) | -7 | 0.84
84 | O=C(NC1CC1)[C@@H]1CCCN1c1cc(NCC2CC2)ncn1 | -10 | 0.99
